According to patent US20090274692A1 (TRUBION PHARMACEUTICALS, published 2009):

Key:
CD37 [1] = target: T1, CD37 (human, UniProt P11049 1-281); assay: FMAT competition with labelled CAS-006 on Ramos cells (Example 4)
T1 construct: whole, on cells; also called human CD37; CD37 receptor
T1 sequence (looked up): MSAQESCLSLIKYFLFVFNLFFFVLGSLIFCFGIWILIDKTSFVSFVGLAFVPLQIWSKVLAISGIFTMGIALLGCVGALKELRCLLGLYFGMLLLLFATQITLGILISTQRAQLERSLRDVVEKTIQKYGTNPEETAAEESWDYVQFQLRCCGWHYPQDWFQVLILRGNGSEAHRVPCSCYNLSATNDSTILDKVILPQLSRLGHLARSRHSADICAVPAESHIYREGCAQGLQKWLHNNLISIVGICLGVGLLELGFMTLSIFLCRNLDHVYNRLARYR

CD37 [2] = target: T1, CD37; assay: FMAT competition with labelled CAS-006 on Ramos cells (FIG. 4)

B1: CAS-001 (Fc fusion)
chain: EIVLTQSPATLSLSPGERATLSCRTSENVYSYLAWYQQKPGQAPRLLIYFAKTLAEGIPARFSGSGSGTDFTLTISSLEPEDFAVYYCQHHSDNPWTFGQGTKVEIKGGGGSGGGGSGGGGTGEVQLVQSGAEVKKPGESLKISCKGSGYSFTGYNMNWVRQMPGKGLEWMGNIDPYYGGTTYNRKFKGQVTISADKSISTAYLQWSSLKASDTAMYYCARSVGPMDYWGRGTLVTVSSDQ[sequence of human IgG1 Fc with changes omitted]
notes: also called Vk3: VH5-51
B1: binds (CD37 [1]).

B2: CAS-003 (Fc fusion)
chain: EIVLTQSPATLSLSPGERATLSCRASENVYSYLAWYQQKPGQAPRLLIYFAKTLAEGIPARFSGSGSGTDFTLTISSLEPEDFAVYYCQHHSDNPWTFGQGTKVEIKGGGGSGGGGSGGGGTGEVQLVQSGAEVKKPGESLKISCKGSGYSFTGYNMNWVRQMPGKGLEWMGNIDPYYGGTTYNRKFKGQVTISADKSISTAYLQWSSLKASDTAMYYCARSVGPFDSWGQGTLVTVSSDQ[sequence of human IgG1 Fc with changes omitted]
notes: also called CAS-003 (hVLhVH); Vk3: VH5 JH5a CDRL1 (T25A)
B2: binds (CD37 [2]).

B3: CAS-024 [G28-1 VH (M99F, Y102S)-VL (T25A) scFv (SSC-P) H WCH2 WCH3] (Fc fusion)
chain: EVQLVQSGAEVKKPGESLKISCKGSGYSFTGYNMNWVRQMPGKGLEWMGNIDPYYGGTTYNRKFKGQVTISADKSISTAYLQWSSLKASDTAMYYCARSVGPFDSWGQGTLVTVSSGGGGSGGGGSGGGGSGGGGSGGGGSEIVLTQSPATLSLSPGERATLSCRASENVYSYLAWYQQKPGQAPRLLIYFAKTLAEGIPARFSGSGSGTDFTLTISSLEPEDFAVYYCQHHSDNPWTFGQGTKVEIKGDQ[sequence of human IgG1 Fc with changes omitted]
notes: Humanized VH-(G4S)5-VL scFv, SSC-P IgG1 hinge, IgG1 CH2CH3; 483 amino acids; also called CAS-024 (hVHhVL)
In the case of B3, the “fold greater affinity than the humanized VLVH anti-CD37 SMIP molecules” value (CD37 [1]) is reported as at most 4 fold.
